Measurements reported in the supplement of paper PMC3334620.
In all, about 33,000 sequences were measured (“E-score (-0.5 to 0.5)”: median about -0.035, highest 2% from about 0.34 on). The list shows a part of the results.

These sequences were tested against T1, Mot3 (UniProt P54785) (assay: PBM E-score (8-mer binding enrichment) (E-score (-0.5 to 0.5)); higher = stronger / more preferred TF binding; most listed sequences are background and not binding sites). Details: protein concentration: 200 nM; construct: GST-full length.
T1 sequence: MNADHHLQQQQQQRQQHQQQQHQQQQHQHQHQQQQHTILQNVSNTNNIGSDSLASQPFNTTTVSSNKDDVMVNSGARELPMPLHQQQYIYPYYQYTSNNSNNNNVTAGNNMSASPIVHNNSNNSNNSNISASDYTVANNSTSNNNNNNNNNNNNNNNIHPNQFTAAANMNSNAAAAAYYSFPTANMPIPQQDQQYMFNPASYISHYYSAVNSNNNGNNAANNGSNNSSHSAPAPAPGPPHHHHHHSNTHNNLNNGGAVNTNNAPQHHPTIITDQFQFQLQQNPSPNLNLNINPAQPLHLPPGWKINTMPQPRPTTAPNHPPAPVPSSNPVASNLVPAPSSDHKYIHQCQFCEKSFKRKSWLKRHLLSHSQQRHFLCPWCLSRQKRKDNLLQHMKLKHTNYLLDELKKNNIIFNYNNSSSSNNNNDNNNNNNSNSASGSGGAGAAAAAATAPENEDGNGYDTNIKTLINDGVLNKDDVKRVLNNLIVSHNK
Summary of the method: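 The E-score, a modified Wilcoxon-Mann-Whitney statistic, was computed by the Universal PBM Analysis Suite for every ungapped eight-base word pooled with its reverse complement. Scans behind it were normalised with masliner after bound GST-tagged yeast transcription factors were detected with fluorescent anti-GST. The proteins, at about 100-200 nM, had been applied to universal all-10-mer Agilent arrays made double-stranded by primer extension.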
For GGCATGGA, the “PBM E-score” value was -0.0411.
In the case of AGCACCCT, the “PBM E-score” value is reported as -0.214.
With GTTATGTA the “PBM E-score” value was 0.323.
With ACTCAGGC the “PBM E-score” value was 0.241.
CCTGTCAA was tested, and the “PBM E-score” value was 0.214.
For GAACAGTC, the “PBM E-score” value was -0.172.
In the case of ATCTTGGC, the “PBM E-score” value is reported as -0.221.
AGAAAGAG was tested, and the “PBM E-score” value was -0.195.
For CAAACTAG, the “PBM E-score” value was 0.059.
For ATGAACAT, the “PBM E-score” value was 0.252.
In the case of CAGGATAG, the “PBM E-score” value is reported as -0.137.
With AGGTGCCC the “PBM E-score” value was 0.295.
CCCGTTTC was tested, and the “PBM E-score” value was -0.208.
For GATACGTA, the “PBM E-score” value was 0.215.
With ATGTGTGA the “PBM E-score” value was 0.125.
In the case of ATCTTTCC, the “PBM E-score” value is reported as 0.0474.
With AGTGAAAG the “PBM E-score” value was -0.0637.
In the case of CAAGGTCA, the “PBM E-score” value is reported as -0.0892.
With ATTCTCGC the “PBM E-score” value was -0.24.
CCATGCCA was tested, and the “PBM E-score” value was -0.118.
In the case of AAGTAATC, the “PBM E-score” value is reported as 0.272.
For ATTTTAAG, the “PBM E-score” value was 0.0582.
In the case of TGATTAAA, the “PBM E-score” value is reported as -0.0142.
ACCGAGAT was tested, and the “PBM E-score” value was -0.131.
For ACAGGCTA, the “PBM E-score” value was 0.183.
With CACTCTCG the “PBM E-score” value was 0.0485.
In the case of CATTTTCG, the “PBM E-score” value is reported as -0.0345.
For AAGGGCGT, the “PBM E-score” value was 0.025.
In the case of AGGTAACG, the “PBM E-score” value is reported as 0.266.
With CTCGGTCC the “PBM E-score” value was -0.203.
With CCAGACAC the “PBM E-score” value was -0.206.
With TCGAATAA the “PBM E-score” value was -0.146.
With CGCCCAAG the “PBM E-score” value was -0.105.
With CATCGCCC the “PBM E-score” value was -0.109.
For CTAAACTA, the “PBM E-score” value was 0.0503.
For CGGTTACA, the “PBM E-score” value was 0.274.
For CATTACCC, the “PBM E-score” value was -0.179.
CGTGATAG was tested, and the “PBM E-score” value was -0.019.
With GCCCTGCA the “PBM E-score” value was -0.18.
For AGACGTAA, the “PBM E-score” value was 0.196.
For AACCGAAG, the “PBM E-score” value was 0.163.
AAGATACC was tested, and the “PBM E-score” value was 0.0004.
With CTCCTGAA the “PBM E-score” value was -0.261.
CGGCTGTA was tested, and the “PBM E-score” value was -0.144.
For GGATAGAA, the “PBM E-score” value was -0.0162.
In the case of GCTAGACA, the “PBM E-score” value is reported as -0.027.
In the case of CCTGCGAG, the “PBM E-score” value is reported as 0.038.
In the case of TCCGGGAA, the “PBM E-score” value is reported as -0.0682.
For CAGAGATC, the “PBM E-score” value was -0.254.
For TAGGCACA, the “PBM E-score” value was 0.491.
In the case of GTGATTTA, the “PBM E-score” value is reported as 0.118.
For CCCTTGTA, the “PBM E-score” value was 0.237.
With AGACGACG the “PBM E-score” value was -0.14.
For ATCCAGTA, the “PBM E-score” value was 0.0712.
With GCATGCCC the “PBM E-score” value was 0.0143.
AAAAGGAG was tested, and the “PBM E-score” value was 0.0569.
For GGGTTGAC, the “PBM E-score” value was -0.176.
AATCGTGG was tested, and the “PBM E-score” value was 0.202.
With CCCTCACG the “PBM E-score” value was -0.33.
With AATTTTTG the “PBM E-score” value was 0.149.
For CTCCGAAG, the “PBM E-score” value was -0.108.
In the case of AACGGCAC, the “PBM E-score” value is reported as 0.11.
CAGAAATA was tested, and the “PBM E-score” value was 0.0466.
ATCATCGC was tested, and the “PBM E-score” value was 0.0609.
CCTTTGTC was tested, and the “PBM E-score” value was 0.106.
CTACAGAA was tested, and the “PBM E-score” value was 0.00386.
For GAGCTCGA, the “PBM E-score” value was -0.178.
For ATGCCCTC, the “PBM E-score” value was -0.0364.
For CCTACAGC, the “PBM E-score” value was 0.0548.
For TCTAACCA, the “PBM E-score” value was 0.168.
In the case of CGGCCGGA, the “PBM E-score” value is reported as -0.264.
With CCGCTTAG the “PBM E-score” value was -0.211.
For CCCACAGG, the “PBM E-score” value was 0.0332.
For AAACATTA, the “PBM E-score” value was 0.153.
AAGTCAAA was tested, and the “PBM E-score” value was 0.0254.
In the case of TGAGGACA, the “PBM E-score” value is reported as 0.0577.
In the case of AAGCACGG, the “PBM E-score” value is reported as 0.0983.
For GCTCGCAC, the “PBM E-score” value was -0.225.
ATCAAGGG was tested, and the “PBM E-score” value was -0.0363.
For AAATATGG, the “PBM E-score” value was -0.0451.
In the case of CTTGGGCC, the “PBM E-score” value is reported as -0.177.
In the case of ACGACGAT, the “PBM E-score” value is reported as -0.117.
For CGAGCACC, the “PBM E-score” value was -0.189.
With CAGGATTA the “PBM E-score” value was 0.0583.
GTATCAAC was tested, and the “PBM E-score” value was 0.0054.
With CTTGTCGC the “PBM E-score” value was -0.0367.
